{
  "source": "PubChem BioAssay AID1508642",
  "about": "(National Center for Advancing Translational Sciences (NCATS), 2021)",
  "note": "Screen size: about 43,000 compounds; about 200 (0.47%) were called active. Another 12% or so got no clear call; they are omitted. Calls come from the whole dose curve; as a rule, active = well fitted cell-killing curve with a large enough effect; inconclusive = small, poorly fitted or top-dose-only effect, or effect the other way; inactive = flat fitted curve, though single readings scatter. Some of the results follow. % is set by controls: 0 for no effect and ±100 for the full control effect.",
  "data": [
    {"test": "Cell viability qHTS assay in S16 Pmp22-F2sN cells; note: nearly all actives have a fitted effect of over 65% in size", "conditions": "S16 Pmp22-F2sN Schwann cells viability, CellTiter-Glo, 24 h; series mostly up to 57.5 µM; activity change, negative = cytotoxicity: at the top concentration", "how_it_was_run": "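Viability was measured by CellTiter-Glo luminescence (15 min, room temperature). This followed 24 h at 37 °C of compound exposure (23 nL pin transfer) in S16 Pmp22-F2sN Schwann cells, 500-1,000 per well.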", "values": [
      {"smiles": "CCN1CCN(c2ncnc3c2cnn3-c2ccc(F)cc2)CC1", "activity change, negative = cytotoxicity": "inactive: 24%"},
      {"smiles": "CCOC(=O)c1cc(CC)sc1NC(=O)COc1ccccc1C", "activity change, negative = cytotoxicity": "inactive: 6.7%"},
      {"smiles": "COc1ccc(C(=O)NCC(c2ccc3c(c2)OCO3)N2CCN(C)CC2)cc1OC", "note": "(stereo not drawn)", "activity change, negative = cytotoxicity": "inactive: 5.36%"},
      {"smiles": "COC(=O)c1ccccc1NC(=O)CCc1c(C)nc2cc(-c3ccc(Cl)cc3)nn2c1C", "activity change, negative = cytotoxicity": "inactive: -3.8%"},
      {"smiles": "CC(=O)c1cc(-c2ccc(F)cc2)n(CCC(=O)NC2CCCCC2)c1C", "activity change, negative = cytotoxicity": "inactive: 2.31%"},
      {"smiles": "CCC(C(=O)NCCc1ccc(SC)cc1)n1nc(C)c2c(C)n(-c3ccc(C)cc3)nc2c1=O", "note": "(stereo not drawn)", "activity change, negative = cytotoxicity": "inactive: -15.3%"},
      {"smiles": "COc1cc(C2CC(=O)N(CC(=O)Nc3ccccc3F)c3ccccc3S2)cc(OC)c1OC", "note": "(stereo not drawn)", "activity change, negative = cytotoxicity": "inactive: -0.0778%"},
      {"smiles": "Cc1ccc(CCNC(=O)c2ccc(CSc3nc4ccncc4n3Cc3ccc(F)cc3)cc2)cc1", "activity change, negative = cytotoxicity": "inactive: -3.88%"},
      {"smiles": "Cc1ccc(-n2nc(CO)c(C(=O)NC(C)c3ccccc3)n2)cc1C", "note": "(stereo not drawn)", "activity change, negative = cytotoxicity": "inactive: -16.5%"},
      {"smiles": "CSc1ccc(CCNC(=O)CCc2c(C)nc3c4cccnc4nn3c2C)cc1", "activity change, negative = cytotoxicity": "inactive: -4.54%"},
      {"smiles": "COc1cccc(CNCc2c(C(=O)O)c(C)n(Cc3ccc(F)cc3Cl)c2C)c1OC", "activity change, negative = cytotoxicity": "inactive: -1.33%"},
      {"smiles": "O=C(CC1N=C2c3ccccc3N=C(SCc3cccc(F)c3)N2C1=O)NC1CCCCC1", "note": "(stereo not drawn)", "activity change, negative = cytotoxicity": "inactive: -8.78%"},
      {"smiles": "CCSc1nc2sc3c(c2c(=O)n1-c1ccc(C)cc1)CCCC3", "activity change, negative = cytotoxicity": "inactive: 17.8%"},
      {"smiles": "CC(C)CNc1cc(NC2CCCCC2)c2c3c(onc13)-c1ccccc1C2=O", "activity change, negative = cytotoxicity": "inactive: -20.6%"},
      {"smiles": "Cc1ccc(Cl)cc1N1CCN(C(=O)c2cn(C)c3ccc(S(=O)(=O)N4CCCCC4)cc3c2=O)CC1", "activity change, negative = cytotoxicity": "inactive: 0.359%"},
      {"smiles": "Cc1ccc(-n2nc(C)c3c(C)c(CCC(=O)NCc4ccccc4Cl)c(C)nc32)cc1", "activity change, negative = cytotoxicity": "inactive: -4.25%"},
      {"smiles": "COc1ccc(C2=C(C(C)=O)Sc3nnc(-c4ccccc4)n3N2C(C)=O)cc1", "activity change, negative = cytotoxicity": "inactive: -2.41%"},
      {"smiles": "CC(=O)NCCNC(=O)c1ccc2c(=O)n(CCc3ccccc3)c(=O)[nH]c2c1", "activity change, negative = cytotoxicity": "inactive: 10.4%"},
      {"smiles": "O=C(Cn1c(=O)n(Cc2ccco2)c(=O)c2sc3ccccc3c21)Nc1ccccc1C(F)(F)F", "activity change, negative = cytotoxicity": "inactive: 4.63%"},
      {"smiles": "Cc1nc2nc(C)c(CCC(=O)NCc3cccc(Cl)c3)c(C)n2n1", "activity change, negative = cytotoxicity": "inactive: 11.5%"},
      {"smiles": "CCOc1cc(C2NC(=O)c3c(sc4c3CCN(C)C4)N2)ccc1OC(=O)c1ccc(F)cc1", "note": "(stereo not drawn)", "activity change, negative = cytotoxicity": "inactive: 1.55%"},
      {"smiles": "Fc1ccc(Cc2cn3cc(-c4ccc(F)cc4)nc3s2)cc1", "activity change, negative = cytotoxicity": "inactive: 20.1%"},
      {"smiles": "COc1cc(NC(=O)c2cc3cc4cc(OC)ccc4nc3o2)cc(OC)c1", "activity change, negative = cytotoxicity": "inactive: 19.3%"},
      {"smiles": "CCOC(=O)c1cnc2c(ccc3ccccc32)c1Nc1ccc(OC)cc1OC", "activity change, negative = cytotoxicity": "inactive: -21.4%"},
      {"smiles": "COc1cccc(N=C2SC(C(=O)Nc3cccc(Cl)c3)CC(=O)N2C)c1", "note": "(stereo not drawn)", "activity change, negative = cytotoxicity": "inactive: 6.35%"},
      {"smiles": "Cc1ccccc1C(=O)N1CCCCC1CCN1CCCCC1", "note": "(stereo not drawn)", "activity change, negative = cytotoxicity": "inactive: 19.5%"},
      {"smiles": "COc1ccc(N2CCN(C(=O)CCc3c(C)nc4cc(-c5cccc(F)c5)nn4c3C)CC2)cc1", "activity change, negative = cytotoxicity": "inactive: 16.7%"},
      {"smiles": "CC(=O)N1CCc2c(sc3c2c(=O)n(-c2ccccc2)c(=O)n3Cc2cccc(C(F)(F)F)c2)C1", "activity change, negative = cytotoxicity": "inactive: -13.8%"},
      {"smiles": "COc1ccc(C)cc1NC(=O)c1oc2ccc(S(=O)(=O)N3CCOCC3)cc2c1C", "activity change, negative = cytotoxicity": "inactive: -8.37%"},
      {"smiles": "COC(=O)c1c(NC(=O)COc2ccc(Cl)cc2C)sc2c1CCCCC2", "activity change, negative = cytotoxicity": "inactive: 3.33%"},
      {"smiles": "COc1ccc(OC)c(NC(=O)CSC2=Nc3ccccc3C3=NC(CCC(=O)NC4CCCCC4)C(=O)N23)c1", "note": "(stereo not drawn)", "activity change, negative = cytotoxicity": "inactive: 0.969%"},
      {"smiles": "CSc1ncc(C(=O)N2CCN(c3ccc(Cl)cc3)CC2)c(C)n1", "activity change, negative = cytotoxicity": "inactive: 5.11%"},
      {"smiles": "CCc1nn(CC(=O)NCCCN2CCN(C)CC2)c(=O)c2cc3occc3n12", "activity change, negative = cytotoxicity": "inactive: 0.287%"},
      {"smiles": "O=C(Cc1ccc(F)cc1)Nc1cccc(-c2nc3cccnc3s2)c1", "activity change, negative = cytotoxicity": "inactive: 18.7%"},
      {"smiles": "Cc1cccc(N2CCN(C(=O)CCCn3ncn4c(cc5occc54)c3=O)CC2)c1C", "activity change, negative = cytotoxicity": "inactive: -5.56%"},
      {"smiles": "CCOc1cc(CNCCSc2nnnn2C)cc(Cl)c1OCc1ccc(Cl)cc1", "activity change, negative = cytotoxicity": "inactive: -12.5%"},
      {"smiles": "CCc1ccc(NC(=O)CCc2c(C)n(C)c3cc(-c4ccccc4C)nn3c2=O)cc1", "activity change, negative = cytotoxicity": "inactive: 7.56%"},
      {"smiles": "Cc1ccc(CCNS(=O)(=O)c2ccc3c(c2)CCN3C(=O)CCC(=O)O)cc1", "activity change, negative = cytotoxicity": "inactive: 1.85%"},
      {"smiles": "COc1ccc(CCNC(=O)C2=C(C)C(=O)OC23CCCCC3)c(OC)c1", "activity change, negative = cytotoxicity": "inactive: -3.26%"},
      {"smiles": "Cc1ccc(CNC(=O)c2cc(Sc3ccc(F)cc3F)nc3ccccc23)cc1", "activity change, negative = cytotoxicity": "inactive: -0.442%"},
      {"smiles": "CCC(C(=O)N(C)Cc1ccccc1)n1nc(C)c2sc3ccccc3c2c1=O", "note": "(stereo not drawn)", "activity change, negative = cytotoxicity": "inactive: 8.14%"},
      {"smiles": "COc1ccc(NC(=O)C2CCCN(S(=O)(=O)c3ccc4[nH]c(=O)ccc4c3)C2)cc1OC", "note": "(stereo not drawn)", "activity change, negative = cytotoxicity": "inactive: 0.549%"},
      {"smiles": "CC(=O)N1CCCC1c1nc2ccccc2n1Cc1cc(C)ccc1C", "note": "(stereo not drawn)", "activity change, negative = cytotoxicity": "inactive: 11.8%"},
      {"smiles": "CCOC(=O)N1CCN(S(=O)(=O)N2CCCC(C(=O)NCc3ccccc3OC)C2)CC1", "note": "(stereo not drawn)", "activity change, negative = cytotoxicity": "inactive: -1.31%"},
      {"smiles": "Cc1ccc2ccc3cc(C(=O)Nc4ccc(C)c(F)c4)nc3c2[nH]1", "activity change, negative = cytotoxicity": "inactive: -2.04%"},
      {"smiles": "CCOC(=O)c1ccc(CN(Cc2ccc(F)cc2)S(=O)(=O)c2cc(C(=O)Nc3ccccc3CC)ccc2F)cc1", "activity change, negative = cytotoxicity": "inactive: -10.7%"},
      {"smiles": "O=C(Nc1ccccc1)N(Cc1cccs1)c1ccc(Cl)cc1", "activity change, negative = cytotoxicity": "inactive: 19.1%"},
      {"smiles": "Cc1ccc(-n2c(=O)[nH]c3sc4c(c3c2=O)CCCC4)cc1", "activity change, negative = cytotoxicity": "inactive: 5.24%"}
    ]}
  ]
}
